# According to the supplement of paper PMC12217912:
# This is one part of the list. Sequences were assembled here from the parent chain. Values near 0.05 are background.
# B1: TEV protease; numbered along this chain (parent)
# chain: MGESLFKGPRDYNPISSSICHLTNESDGHTTSLYGIGFGPFIITNKHLFRRNNGTLVVQSLHGVFKVKDTTTLQQHLVDGRDMIIIRMPKDFPPFPQKLKFREPQREERICLVTTNFQTKSMSSMVSDTSCTFPSGDGIFWKHWIQTKDGQCGSPLVSTRDGFIVGIHSASNFTNTNNYFTSVPKNFMELLTNQEAQQWVSGWRLNADSVLWGGHKVFMVKPEEPFQPVKEATQL
# Variants of: B1
# Assay: raw area under fraction-flipped curve 0-4 h after induction (AUC4h, not background-subtracted), DNA-recorder readout of cleavage of the substrate (dimensionless); higher = more cleavage of the substrate by the protease variant
# Conditions: temperature: 34 °C; time window: 0-4 h after rhamnose induction
# Procedure: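 In vivo DNA recorder in E. coli TOP10(DE3) ΔrhaA at 34 °C. Each TEVp single-site mutant (parent TEVp 0) is paired with a single-site variant of the 7-mer TEVs (canonical ENLYFQ|S). The substrate sits between flexible linkers in a Bxb1-sfGFP-TEVs-SsrA fusion, so cleavage stabilises Bxb1 and speeds flipping of a recombination array, read by NGS. The value is the raw area under the fraction-flipped curve over 0-4 h after rhamnose induction (AUC4h), with ≥20 reads per time point. It is not background-subtracted; inactive controls average about 0.047.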
# 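Also: Bxb1 expression induced with 0.2% (w/v) L-rhamnose at OD600 near 0.5, cultures sampled hourly, flipped fraction per protease–substrate barcode pair counted by paired-end Illumina sequencing.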
variant,measurement,value
MGESLFKGPRDYNPISSSICHLTNESDGHTTSLYGIGFGPFIITNKHLFRRNNGTLVVQSLHGVFKVKDTTTLQQHLVDGRDMIIIRMPKDFPPFPQKLKFREPQREERICLVTTNFQTKSMSSMVSDTSCTFPSGDGIFWKHWIQTKDGQCGSPLVSTRDGFIVGIHSASNFTNTNNYFTSVPKNFMELLTNQEIQQWVSGWRLNADSVLWGGHKVFMVKPEEPFQPVKEATQL [A196I],area with substrate ANLYFQS,0.105
same,area with substrate DNLYFQS,0.0954
same,area with substrate FNLYFQS,0.0707
same,area with substrate GNLYFQS,0.0668
same,area with substrate HNLYFQS,0.0634
same,area with substrate INLYFQS,0.0735
same,area with substrate KNLYFQS,0.0579
same,area with substrate LNLYFQS,0.0735
same,area with substrate MNLYFQS,0.0677
same,area with substrate NNLYFQS,0.0719
same,area with substrate PNLYFQS,0.0903
same,area with substrate QNLYFQS,0.067
same,area with substrate TNLYFQS,0.0653
same,area with substrate VNLYFQS,0.0724
same,area with substrate WNLYFQS,0.0569
same,area with substrate YNLYFQS,0.0642
MGESLFKGPRDYNPISSSICHLTNESDGHTTSLYGIGFGPFIITNKHLFRRNNGTLVVQSLHGVFKVKDTTTLQQHLVDGRDMIIIRMPKDFPPFPQKLKFREPQREERICLVTTNFQTKSMSSMVSDTSCTFPSGDGIFWKHWIQTKDGQCGSPLVSTRDGFIVGIHSASNFTNTNNYFTSVPKNFMELLTNQEMQQWVSGWRLNADSVLWGGHKVFMVKPEEPFQPVKEATQL [A196M],area with substrate ANLYFQS,0.0659
same,area with substrate CNLYFQS,0.0853
same,area with substrate FNLYFQS,0.0529
same,area with substrate GNLYFQS,0.0736
same,area with substrate HNLYFQS,0.0591
same,area with substrate INLYFQS,0.0723
same,area with substrate KNLYFQS,0.0661
same,area with substrate LNLYFQS,0.0681
same,area with substrate MNLYFQS,0.0701
same,area with substrate NNLYFQS,0.0833
same,area with substrate PNLYFQS,0.073
same,area with substrate SNLYFQS,0.0629
same,area with substrate TNLYFQS,0.0671
same,area with substrate VNLYFQS,0.0533
same,area with substrate WNLYFQS,0.048
same,area with substrate YNLYFQS,0.0575
MGESLFKGPRDYNPISSSICHLTNESDGHTTSLYGIGFGPFIITNKHLFRRNNGTLVVQSLHGVFKVKDTTTLQQHLVDGRDMIIIRMPKDFPPFPQKLKFREPQREERICLVTTNFQTKSMSSMVSDTSCTFPSGDGIFWKHWIQTKDGQCGSPLVSTRDGFIVGIHSASNFTNTNNYFTSVPKNFMELLTNQEQQQWVSGWRLNADSVLWGGHKVFMVKPEEPFQPVKEATQL [A196Q],area with substrate ANLYFQS,0.0728
same,area with substrate DNLYFQS,0.0853
same,area with substrate FNLYFQS,0.0708
same,area with substrate GNLYFQS,0.0766
same,area with substrate HNLYFQS,0.0496
same,area with substrate INLYFQS,0.0604
same,area with substrate KNLYFQS,0.0707
same,area with substrate LNLYFQS,0.0578
same,area with substrate QNLYFQS,0.0608
same,area with substrate SNLYFQS,0.0622
same,area with substrate TNLYFQS,0.0406
same,area with substrate VNLYFQS,0.0641
same,area with substrate WNLYFQS,0.0746
same,area with substrate YNLYFQS,0.0254
MGESLFKGPRDYNPISSSICHLTNESDGHTTSLYGIGFGPFIITNKHLFRRNNGTLVVQSLHGVFKVKDTTTLQQHLVDGRDMIIIRMPKDFPPFPQKLKFREPQREERICLVTTNFQTKSMSSMVSDTSCTFPSGDGIFWKHWIQTKDGQCGSPLVSTRDGFIVGIHSASNFTNTNNYFTSVPKNFMELLTNQEAQQDVSGWRLNADSVLWGGHKVFMVKPEEPFQPVKEATQL [W199D],area with substrate ANLYFQS,0.0693
same,area with substrate DNLYFQS,0.0559
same,area with substrate HNLYFQS,0.0607
same,area with substrate MNLYFQS,0.049
same,area with substrate NNLYFQS,0.0609
same,area with substrate PNLYFQS,0.0576
same,area with substrate SNLYFQS,0.0677
same,area with substrate TNLYFQS,0.0611
same,area with substrate WNLYFQS,0.0474
same,area with substrate YNLYFQS,0.0508
MGESLFKGPRDYNPISSSICHLTNESDGHTTSLYGIGFGPFIITNKHLFRRNNGTLVVQSLHGVFKVKDTTTLQQHLVDGRDMIIIRMPKDFPPFPQKLKFREPQREERICLVTTNFQTKSMSSMVSDTSCTFPSGDGIFWKHWIQTKDGQCGSPLVSTRDGFIVGIHSASNFTNTNNYFTSVPKNFMELLTNQEAQQWVIGWRLNADSVLWGGHKVFMVKPEEPFQPVKEATQL [S201I],area with substrate ANLYFQS,0.0613
same,area with substrate CNLYFQS,0.0631
same,area with substrate HNLYFQS,0.0652
same,area with substrate LNLYFQS,0.057
same,area with substrate NNLYFQS,0.0687
same,area with substrate SNLYFQS,0.0666
same,area with substrate TNLYFQS,0.0661
same,area with substrate VNLYFQS,0.055
same,area with substrate WNLYFQS,0.0611
MGESLFKGPRDYNPISSSICHLTNESDGHTTSLYGIGFGPFIITNKHLFRRNNGTLVVQSLHGVFKVKDTTTLQQHLVDGRDMIIIRMPKDFPPFPQKLKFREPQREERICLVTTNFQTKSMSSMVSDTSCTFPSGDGIFWKHWIQTKDGQCGSPLVSTRDGFIVGIHSASNFTNTNNYFTSVPKNFMELLTNQEAQQWVLGWRLNADSVLWGGHKVFMVKPEEPFQPVKEATQL [S201L],area with substrate ANLYFQS,0.047
same,area with substrate DNLYFQS,0.0745
same,area with substrate FNLYFQS,0.06
same,area with substrate GNLYFQS,0.073
same,area with substrate HNLYFQS,0.0621
same,area with substrate INLYFQS,0.0506
same,area with substrate MNLYFQS,0.0744
same,area with substrate NNLYFQS,0.0779
same,area with substrate PNLYFQS,0.0609
same,area with substrate SNLYFQS,0.0564
same,area with substrate TNLYFQS,0.0637
same,area with substrate VNLYFQS,0.0602
same,area with substrate WNLYFQS,0.0574
same,area with substrate YNLYFQS,0.0615
MGESLFKGPRDYNPISSSICHLTNESDGHTTSLYGIGFGPFIITNKHLFRRNNGTLVVQSLHGVFKVKDTTTLQQHLVDGRDMIIIRMPKDFPPFPQKLKFREPQREERICLVTTNFQTKSMSSMVSDTSCTFPSGDGIFWKHWIQTKDGQCGSPLVSTRDGFIVGIHSASNFTNTNNYFTSVPKNFMELLTNQEAQQWVSLWRLNADSVLWGGHKVFMVKPEEPFQPVKEATQL [G202L],area with substrate ANLYFQS,0.0628
same,area with substrate DNLYFQS,0.0545
same,area with substrate HNLYFQS,0.0602
same,area with substrate KNLYFQS,0.0678
same,area with substrate PNLYFQS,0.0599
same,area with substrate SNLYFQS,0.0521
same,area with substrate TNLYFQS,0.0572
same,area with substrate WNLYFQS,0.0491
MGESLFKGPRDYNPISSSICHLTNESDGHTTSLYGIGFGPFIITNKHLFRRNNGTLVVQSLHGVFKVKDTTTLQQHLVDGRDMIIIRMPKDFPPFPQKLKFREPQREERICLVTTNFQTKSMSSMVSDTSCTFPSGDGIFWKHWIQTKDGQCGSPLVSTRDGFIVGIHSASNFTNTNNYFTSVPKNFMELLTNQEAQQWVSMWRLNADSVLWGGHKVFMVKPEEPFQPVKEATQL [G202M],area with substrate ANLYFQS,0.0646
same,area with substrate CNLYFQS,0.072
same,area with substrate FNLYFQS,0.077
same,area with substrate HNLYFQS,0.0524
same,area with substrate NNLYFQS,0.0688
same,area with substrate PNLYFQS,0.057
same,area with substrate SNLYFQS,0.0496
same,area with substrate VNLYFQS,0.0408
same,area with substrate WNLYFQS,0.0549
same,area with substrate YNLYFQS,0.0602
MGESLFKGPRDYNPISSSICHLTNESDGHTTSLYGIGFGPFIITNKHLFRRNNGTLVVQSLHGVFKVKDTTTLQQHLVDGRDMIIIRMPKDFPPFPQKLKFREPQREERICLVTTNFQTKSMSSMVSDTSCTFPSGDGIFWKHWIQTKDGQCGSPLVSTRDGFIVGIHSASNFTNTNNYFTSVPKNFMELLTNQEAQQWVSGCRLNADSVLWGGHKVFMVKPEEPFQPVKEATQL [W203C],area with substrate ANLYFQS,0.0435
same,area with substrate DNLYFQS,0.0531
same,area with substrate FNLYFQS,0.0518
same,area with substrate GNLYFQS,0.063
same,area with substrate HNLYFQS,0.0437
same,area with substrate INLYFQS,0.0569
same,area with substrate MNLYFQS,0.0559
same,area with substrate NNLYFQS,0.0535
same,area with substrate PNLYFQS,0.065
same,area with substrate QNLYFQS,0.0552
same,area with substrate SNLYFQS,0.0633
same,area with substrate TNLYFQS,0.0567
same,area with substrate VNLYFQS,0.0723
same,area with substrate WNLYFQS,0.0706
same,area with substrate YNLYFQS,0.0559
